The campaign covered roughly 270,000 compounds. About 5,800 (2.1%) were called active. The shares of active, inactive and inconclusive entries below differ from those in the screen. Calls come from the whole dose curve; as a rule, active = well fitted inhibition curve with a large enough effect; inconclusive = small, poorly fitted or top-dose-only effect; inactive = flat fitted curve, though single readings scatter. Potencies of inconclusive entries are doubtful fits and often do not repeat.
target: Microtubule-associated protein tau (Homo sapiens) (UniProt P10636); test: qHTS for Inhibitors of Tau Fibril Formation, Thioflavin T Binding; details: recombinant tau K18 P301L (four-repeat tau fragment), heparin-induced fibrillization, ThT fluorescence; series mostly up to 57.4 µM; activity, negative = inhibition: at the top concentration; note: nearly all actives have a fitted effect of over 55% in size
How it was run: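 Heparin-induced fibrillization of the P301L-mutant K18 repeat-domain fragment of human tau was followed by ThT binding in quantitative high-throughput format.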
% is set by controls: 0 for no effect and ±100 for the full control effect; potency is the fitted concentration of half-maximal effect; tags give direction and shape of the fitted curve.

Chain of UniProt P10636 (P10636 whole entry, looked up, the tested form may be a part): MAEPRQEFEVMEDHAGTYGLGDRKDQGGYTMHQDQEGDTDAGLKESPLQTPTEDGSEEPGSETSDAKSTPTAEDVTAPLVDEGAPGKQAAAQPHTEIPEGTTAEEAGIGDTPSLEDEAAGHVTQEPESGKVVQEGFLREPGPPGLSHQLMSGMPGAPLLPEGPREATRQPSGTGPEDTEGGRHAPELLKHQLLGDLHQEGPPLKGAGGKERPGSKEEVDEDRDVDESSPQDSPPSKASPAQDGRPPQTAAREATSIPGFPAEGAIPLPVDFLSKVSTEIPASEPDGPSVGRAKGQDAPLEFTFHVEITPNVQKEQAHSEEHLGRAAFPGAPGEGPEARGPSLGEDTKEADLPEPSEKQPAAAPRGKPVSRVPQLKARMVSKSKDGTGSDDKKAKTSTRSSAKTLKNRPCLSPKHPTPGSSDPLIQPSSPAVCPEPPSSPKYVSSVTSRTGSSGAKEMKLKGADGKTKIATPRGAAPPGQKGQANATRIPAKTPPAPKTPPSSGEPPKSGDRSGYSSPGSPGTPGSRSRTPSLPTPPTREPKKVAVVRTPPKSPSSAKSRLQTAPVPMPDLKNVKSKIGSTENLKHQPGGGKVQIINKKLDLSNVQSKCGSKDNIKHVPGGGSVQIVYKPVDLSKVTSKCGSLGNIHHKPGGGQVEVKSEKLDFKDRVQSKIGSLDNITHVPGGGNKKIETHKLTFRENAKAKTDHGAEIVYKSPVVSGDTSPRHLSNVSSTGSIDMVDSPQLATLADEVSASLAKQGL

Structure (SMILES)	Potency	activity, negative = inhibition
C/C(=N/NC(=O)c1cc(C2CC2)[nH]n1)c1cccs1	inconclusive: 44.7 µM [inhibitor, partial curve, poor fit]	–
COc1ccc(NC(=O)c2c(C)oc3c2CCCC3)cc1	inconclusive: 44.7 µM [inhibitor, single point]	–
C[C@H]1CC[C@H]2C(=O)N3[C@H](c4ccccc4Br)[C@@H](C)CC[C@H]3C(=O)N2[C@@H]1c1ccccc1Br	–	inactive: -15.5%
COc1ccc(OC)c(N=c2ssnc2Cl)c1	active: 11.2 µM	–
O=C(CSc1nc2ccccc2n1Cc1cccc(Cl)c1)N1CCN(c2ccc(F)cc2)CC1	inconclusive: 15.8 µM [inhibitor, partial curve, poor fit]	–
COC(=O)c1c(NC(NC(=O)C(C)C)C(Cl)(Cl)Cl)sc2c1CCC2 (stereo unspecified)	inconclusive: 15.8 µM [inhibitor, single point]	–
CCCNC(=O)OC[C@@H]1O[C@H](CCO/N=C\[C@@H](C)[C@H](OCc2ccccc2)C(C)C)C=C[C@@H]1Oc1ccc(OC)cc1	–	inactive: -11.8% [at 11.5 µM]
CCOC(=O)c1c(NC(=O)CC2SC(N)=NC2=O)sc2c1CCC(C)C2 (stereo unspecified)	–	inactive: -16.1%
CCn1c(C)nc2cc(C(=O)N/N=C/c3ccc(O)cc3)ccc21	inconclusive: 25.1 µM [inhibitor, single point]	–
Cc1ccccc1N1C(=O)CC(Sc2nnc(-c3ccccc3)o2)C1=O (stereo unspecified)	inconclusive: 17.8 µM [inhibitor, partial curve]	–
O=C(Cc1ccc(Cl)c(Cl)c1)Nc1cccc2ncccc12	inconclusive: 17.8 µM [inhibitor, single point]	–
Cc1nn2c(-n3ccnc3C)c3c(nc2c1-c1ccccc1)CCC3	inconclusive: 14.1 µM [inhibitor, single point]	–
O=C(Nc1ccc(Cl)cc1Cl)c1cccc(N2C(=O)C=CC2=O)c1	inconclusive: 0.891 µM [inhibitor, partial curve, poor fit]	–
Cc1ccc(C2=NN3C(=O)c4ccccc4C3C2)cc1 (stereo unspecified)	inconclusive: 3.55 µM [inhibitor, full curve, poor fit]	–
COc1cc(C)ccc1OCCOc1c(C)cccc1Cl	inconclusive: 15.8 µM [inhibitor, single point]	–
CCOc1ccccc1CNC(=O)CCc1cn(C)c2ccccc12	–	inactive: -2.55%
Cc1csc(NC(=O)CSc2nc3ccccc3c3c2CCCC3)n1	–	inactive: -14.9%
CCSc1n[nH]c(=S)s1	–	inactive: -2.92%
O=C(Cn1cnc2ccccc21)NCc1ccccc1	–	inactive: -2.13%
CCSC1=NC2(CCN(C(=O)NC3CCCCC3)CC2)N=C1c1ccc(OC)cc1	inconclusive: 39.8 µM [inhibitor, single point]	–
Cc1nc(CC(=O)Nc2ccc(C(N)=O)cc2)cs1	–	inactive: -3.51%
CCCOc1ccc(CC2C(=O)Nc3ccc(Br)cc32)cc1 (stereo unspecified)	inconclusive: 12.6 µM [inhibitor, partial curve]	–
CN1C[C@@H]2C(c3ccc(C(F)(F)F)cc3)C3(c4ccccc4)CC2(C3)[C@H]1c1ccccc1 (stereo partly specified)	inconclusive: 10 µM [inhibitor, partial curve]	–

Structure (SMILES)	Potency	activity, negative = inhibition
Cc1ccc(-c2nn3c(C)nnc3s2)cc1NC(=O)CSc1ccc(Cl)cc1	inconclusive: 4.47 µM [activator, full curve, poor fit]	–
CC(C)[C@H](NC(=O)Nc1ccc(S(N)(=O)=O)cc1)C(=O)O	inconclusive: 11.2 µM [inhibitor, partial curve, poor fit]	–
COc1ccc2cc(CN(CCc3ccccc3)Cc3nnnn3CC3CCCO3)c(=O)[nH]c2c1 (stereo unspecified)	–	inactive: 0.0262%
O=C(Nc1nc(-c2ccccn2)cs1)c1cccc(-n2cnnn2)c1	inconclusive: 11.2 µM [inhibitor, partial curve, poor fit]	–
O=C(/C=C/c1ccc2c(c1)OCCO2)c1ccccc1	inconclusive: 35.5 µM [inhibitor, partial curve, poor fit]	–
CCCCN=Cc1sc2ccc(OCC)cc2c1O	inconclusive: 15.8 µM [inhibitor, partial curve]	–
CC(O)c1n(C)c(Cl)c[n+]1C (stereo unspecified)	–	inactive: -2.84%
COc1ccc(C2C=C(Nc3ccccc3)C(=O)N2c2ccccc2)cc1OC (stereo unspecified)	active: 12.6 µM	–
COc1cc(/C=C(/C#N)c2ccccc2F)ccc1OCc1ccccc1	–	inactive: 5.97%
COc1ccccc1C(=O)Nc1ccc2oc(-c3ccc(F)cc3)nc2c1	inconclusive: 1.26 µM [inhibitor, full curve]	–
Cc1ccc(O)c(C(=O)CC(=O)c2cccc(F)c2)c1	inconclusive: 25.1 µM [inhibitor, partial curve]	–
CCOC(=O)c1cc2c(=O)n3ccccc3nc2n(CCCOC)c1=NC(=O)c1cc2ccccc2o1	–	inactive: -15.4%
Cc1ccc2oc(=O)c3cnn(CC(=O)N4CCc5ccccc5C4)c3c2c1	inconclusive: 8.91 µM [inhibitor, full curve]	–
CCOC(=O)c1ccc(NC(=O)CSc2nc3c(c(=O)n2-c2ccccc2OC)SCC3)cc1	–	inactive: -3.52%
c1ccc(OCCCn2nnc(-c3ccc(N4CCOCC4)cc3)n2)cc1	inconclusive: 2 µM [inhibitor, partial curve]	–
CC(=O)Nc1ccc(S(=O)(=O)NC2(C(F)(F)F)C(=O)Nc3c2c(=O)[nH]c(=O)n3-c2ccc(C)cc2)cc1 (stereo unspecified)	–	inactive: 3.09%
O=c1nc(/C=C/c2ccc(O)c(O)c2)oc2ccccc12	inconclusive: 15.8 µM [inhibitor, partial curve]	–
O=C1CSc2ccc(C(=O)NCC(c3ccco3)N3CCCCC3)cc2N1 (stereo unspecified)	–	inactive: -15.2%
CCc1cccc(NC(=O)CN2C(=O)COc3ccc(S(=O)(=O)N4CCC(C)CC4)cc32)c1	–	inactive: 5.74%
CCn1c2ccccc2c2cc(Nc3cc(C)nc4ncnn34)ccc21	inconclusive: 10 µM [inhibitor, partial curve]	–
Cc1ccc(C(=O)CC2(O)C(=O)N(CCc3ccccc3)c3ccc(Br)cc32)cc1 (stereo unspecified)	–	inactive: -9.21%
Cc1ccccc1N=C1c2cc([N+](=O)[O-])ccc2-c2ncccc21	inconclusive: 28.2 µM [inhibitor, partial curve]	–
COC(=O)C/C=C\[C@@H](C)[C@@H](/C=N\OC[C@@H](O)COCc1ccco1)NS(=O)(=O)c1ccc(C)cc1	–	inactive: -15.2% [at 11.5 µM]

— PubChem BioAssay AID1460 (National Center for Advancing Translational Sciences (NCATS), 2008)
